This is one part of the list.
Experiments:
Assay in all cases: glycan array binding signal (z-score within array); higher = stronger binding
Details in all cases: glycan notation: IUPAC condensed, linker removed
[1] = molecular target: Gal(b1-3)[Fuc(a1-4)]GlcNAc
How it was run: (§1)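 Arrays were curated from the Consortium for Functional Glycomics database, 3228 in total, and kept only where the protein sequence was available. Binding is expressed as a within-array Z-score. This score was averaged across arrays of the same protein sequence at different concentrations or buffers and across linkers, and negative values can be read as non-binding.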

[2] = molecular target: Gal(b1-3)[Fuc(a1-4)]GlcNAc(b1-3)Gal(b1-3)[Fuc(a1-4)]GlcNAc
How it was run: as §1

[3] = molecular target: Gal(b1-3)[Fuc(a1-4)]GlcNAc(b1-3)Gal(b1-4)GlcNAc
How it was run: as §1

[4] = molecular target: Gal(b1-3)[Fuc(a1-4)]GlcNAc(b1-3)Gal(b1-4)[Fuc(a1-3)]GlcNAc
How it was run: as §1

[5] = molecular target: Gal(b1-3)[GlcNAc(b1-6)]GalNAc
How it was run: as §1

[6] = molecular target: Gal(b1-3)[GlcNAc(b1-6)]GlcNAc
How it was run: as §1

[7] = molecular target: Gal(b1-3)[Neu5Ac(a2-6)]GalNAc
How it was run: as §1

[8] = molecular target: Gal(b1-3)[Neu5Ac(a2-6)]GlcNAc
How it was run: as §1

[9] = molecular target: Gal(b1-3)[Neu5Ac(a2-6)]GlcNAc(a1-4)Gal(b1-4)Glc
How it was run: as §1

[10] = molecular target: Gal(b1-3)[Neu5Ac(b2-6)]GlcNAc
How it was run: as §1

[11] = molecular target: Gal(b1-4)GalNAc(a1-3)[Fuc(a1-2)]Gal(b1-4)GlcNAc
How it was run: as §1

[12] = molecular target: Gal(b1-4)GalNAc(b1-3)[Fuc(a1-2)]Gal(b1-4)GlcNAc
How it was run: as §1

Gal(b1-4)Glc = molecular target: Gal(b1-4)Glc
How it was run: as §1

Gal(b1-4)Glc6S = molecular target: Gal(b1-4)Glc6S
How it was run: as §1

Gal(b1-4)GlcNAc = molecular target: Gal(b1-4)GlcNAc
How it was run: as §1

[13] = molecular target: Gal(b1-4)GlcNAc(b1-2)Man(a1-3)[Gal(b1-4)GlcNAc(b1-2)Man(a1-6)]Man(b1-4)GlcNAc(b1-4)GlcNAc
How it was run: as §1

[14] = molecular target: Gal(b1-4)GlcNAc(b1-3)Gal(b1-3)GlcNAc
How it was run: as §1

[15] = molecular target: Gal(b1-4)GlcNAc(b1-3)Gal(b1-4)Glc
How it was run: as §1

[16] = molecular target: Gal(b1-4)GlcNAc(b1-3)Gal(b1-4)GlcNAc
How it was run: as §1

[17] = molecular target: Gal(b1-4)GlcNAc(b1-3)Gal(b1-4)GlcNAc(b1-3)Gal(b1-4)GlcNAc
How it was run: as §1

[18] = molecular target: Gal(b1-4)GlcNAc(b1-3)Gal(b1-4)[Fuc(a1-3)]GlcNAc(b1-3)Gal(b1-4)[Fuc(a1-3)]GlcNAc
How it was run: as §1

[19] = molecular target: Gal(b1-4)GlcNAc(b1-3)GalNAc
How it was run: as §1

[20] = molecular target: Gal(b1-4)GlcNAc(b1-3)[Gal(b1-4)GlcNAc(b1-6)]GalNAc
How it was run: as §1

[21] = molecular target: Gal(b1-4)GlcNAc(b1-6)GalNAc
How it was run: as §1

[22] = molecular target: Gal(b1-4)GlcNAc(b1-6)[Gal(b1-3)]GalNAc
How it was run: as §1

[23] = molecular target: Gal(b1-4)GlcNAc(b1-6)[Gal(b1-3)]GlcNAc
How it was run: as §1

Gal3S(b1-3)GalNAc = molecular target: Gal3S(b1-3)GalNAc
How it was run: as §1

Gal3S(b1-3)GlcNAc = molecular target: Gal3S(b1-3)GlcNAc
How it was run: as §1

[24] = molecular target: Gal3S(b1-3)[Fuc(a1-4)]GlcNAc
How it was run: as §1

Gal3S(b1-4)Glc = molecular target: Gal3S(b1-4)Glc
How it was run: as §1

Gal3S(b1-4)Glc6S = molecular target: Gal3S(b1-4)Glc6S
How it was run: as §1

Gal3S(b1-4)GlcNAc = molecular target: Gal3S(b1-4)GlcNAc
How it was run: as §1

Gal3S(b1-4)GlcNAc6S = molecular target: Gal3S(b1-4)GlcNAc6S
How it was run: as §1

Gal3S6S(b1-4)GlcNAc = molecular target: Gal3S6S(b1-4)GlcNAc
How it was run: as §1

Gal3S6S(b1-4)GlcNAc6S = molecular target: Gal3S6S(b1-4)GlcNAc6S
How it was run: as §1

Gal4S(b1-4)GlcNAc = molecular target: Gal4S(b1-4)GlcNAc
How it was run: as §1

Gal4S6S(b1-4)GlcNAc = molecular target: Gal4S6S(b1-4)GlcNAc
How it was run: as §1

Gal6S(b1-4)Glc = molecular target: Gal6S(b1-4)Glc
How it was run: as §1

B1: TLEC1 (Arabidopsis thaliana), Q9C5Q9 (protein)
chain: MSGASSVSSICSSNVSLIPTGPQVFINFRGKDLRKGFMSFLKPALKKEKINVFIDEQEERGKYLISLFDTIGESKIALVIFSEGYCESHWCMDELVKIKEYMDQNRLIIIPIFYRLDLDVVKDLTGKFGDNFWDLVDKYQPEPKKLHKWTEALFSVCELFSLILPKHSDISDRDFVKSIVKAVKKVQKNFFQRRNGEIEYQDFSVPACKLTITMHESPNEEAVQVTVLNEFYQMKNQSPVPSYEFKFWVDLTRPKGNVFMIDARDLSIAWSEDSNHWTWLPLPNQNSNESVMEIAFLKSASWLDVAGKFDTRYLTPRTRYEVVFVVKLEYTFEWETLVKLKLDLPNTWEKPQEQSVDMFDYISDQWLDIPVGEFTTSKKNVGEISFAMYEHECQLWKSGLFVKGVTIRPKY
[1]
  glycan array binding signal (z-score): -0.291
[2]
  glycan array binding signal (z-score): -0.396
[3]
  glycan array binding signal (z-score): -0.113
[4]
  glycan array binding signal (z-score): -0.322
[5]
  glycan array binding signal (z-score): -0.317
[6]
  glycan array binding signal (z-score): -0.36
[7]
  glycan array binding signal (z-score): -0.439
[8]
  glycan array binding signal (z-score): -0.325
[9]
  glycan array binding signal (z-score): -0.426
[10]
  glycan array binding signal (z-score): -0.106
[11]
  glycan array binding signal (z-score): -0.265
[12]
  glycan array binding signal (z-score): -0.264
Gal(b1-4)Glc
  glycan array binding signal (z-score): 0.141
Gal(b1-4)Glc6S
  glycan array binding signal (z-score): 0.206
Gal(b1-4)GlcNAc
  glycan array binding signal (z-score): -0.385
[13]
  glycan array binding signal (z-score): -0.403
[14]
  glycan array binding signal (z-score): -0.374
[15]
  glycan array binding signal (z-score): -0.038
[16]
  glycan array binding signal (z-score): -0.527
[17]
  glycan array binding signal (z-score): -0.396
[18]
  glycan array binding signal (z-score): -0.111
[19]
  glycan array binding signal (z-score): -0.419
[20]
  glycan array binding signal (z-score): -0.464
[21]
  glycan array binding signal (z-score): -0.429
[22]
  glycan array binding signal (z-score): -0.506
[23]
  glycan array binding signal (z-score): 0.078
Gal3S(b1-3)GalNAc
  glycan array binding signal (z-score): -0.31
Gal3S(b1-3)GlcNAc
  glycan array binding signal (z-score): -0.098
[24]
  glycan array binding signal (z-score): -0.166
Gal3S(b1-4)Glc
  glycan array binding signal (z-score): 0.102
Gal3S(b1-4)Glc6S
  glycan array binding signal (z-score): 1.16
Gal3S(b1-4)GlcNAc
  glycan array binding signal (z-score): 0.355
Gal3S(b1-4)GlcNAc6S
  glycan array binding signal (z-score): 0.663
Gal3S6S(b1-4)GlcNAc
  glycan array binding signal (z-score): 0.26
Gal3S6S(b1-4)GlcNAc6S
  glycan array binding signal (z-score): 12.3
Gal4S(b1-4)GlcNAc
  glycan array binding signal (z-score): -0.327
Gal4S6S(b1-4)GlcNAc
  glycan array binding signal (z-score): 0.308
Gal6S(b1-4)Glc
  glycan array binding signal (z-score): 0.181
